# In the supplement of paper PMC8728848:
# This is one part of the list.
# B1: PX9937F-bfa-516-16-516 (Bacteroides fragilis) (protein)
# chain: LDIDPTSSIADSNYWKTEAQFSTFNVGLHALLRECSFNFFLLGEPRADIYGDVPFGGEATQGMERLPFNTINKENTGISNFAGMYKVINQINLMIAKTKETTVLSEAGKNYYLGEAYGMRAYLYFHLLRSWGDVILYLDYTNGASLDLSNLSKAASPAEEVMKQIKEDITASEKGFGSDYSFKYGRYYWSMAATQMLKGEVYLWSGRQMGGGTADYTTAKTALQSIVSNANVSLQDDFSKVFAYNNKDNSEIIFSIRNAKDEYNMWDDRFRQNLVPQQAYMTSTYCNKEGVSFKDLPEGQLNGLIRLQIRYDLYNKAFRDGDTRKDASMTAVYQKQQDGTVKYIAPFCNKYQGVLLDGASQRSFLNDYPIYRYADCLLLLAEAKALLGEDPTAEINQVRERAYGKEFFEANKATLAYPNDKGDFYTDNKYMSGDEDPLEAILKERMREFMFEGKRWYDLRLLGADYVTKRTSAVATRLLWPINESVLTDNPALKQTPGYQN
# Key:
# Assay in all cases: glycan array binding signal (z-score within array); higher = stronger binding
# Settings in all cases: glycan notation: IUPAC condensed, linker removed
# [1] = target: Gal(b1-4)GlcNAc(b1-3)Gal(b1-4)GlcNAc(b1-3)Gal(b1-4)GlcNAc(b1-3)Gal(b1-4)GlcNAc(b1-2)Man(a1-3)[Gal(b1-4)GlcNAc(b1-3)Gal(b1-4)GlcNAc(b1-3)Gal(b1-4)GlcNAc(b1-3)Gal(b1-4)GlcNAc(b1-2)Man(a1-6)]Man(b1-4)GlcNAc(b1-4)[Fuc(a1-6)]GlcNAc
# Method in brief: (§1)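 Glycan array binding is given as a within-array Z-score, which can be read as non-binding when negative. The arrays, 3228 of them, came from the Consortium for Functional Glycomics database and were retained only where the protein sequence was available. Z-scores were averaged across arrays of the same protein sequence at different concentrations or buffers and across linkers.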
# [2] = target: Gal(b1-4)GlcNAc(b1-3)Gal(b1-4)GlcNAc(b1-3)Gal(b1-4)GlcNAc(b1-3)Gal(b1-4)GlcNAc(b1-2)[Gal(b1-4)GlcNAc(b1-3)Gal(b1-4)GlcNAc(b1-3)Gal(b1-4)GlcNAc(b1-3)Gal(b1-4)GlcNAc(b1-6)]Man(a1-6)[Gal(b1-4)GlcNAc(b1-3)Gal(b1-4)GlcNAc(b1-3)Gal(b1-4)GlcNAc(b1-3)Gal(b1-4)GlcNAc(b1-2)Man(a1-3)]Man(b1-4)GlcNAc(b1-4)[Fuc(a1-6)]GlcNAc
# Method in brief: as §1
# [3] = target: Gal(b1-4)GlcNAc(b1-3)Gal(b1-4)GlcNAc(b1-3)Gal(b1-4)GlcNAc(b1-3)Gal(b1-4)GlcNAc(b1-3)Gal(b1-4)GlcNAc(b1-2)Man(a1-3)[Gal(b1-4)GlcNAc(b1-3)Gal(b1-4)GlcNAc(b1-3)Gal(b1-4)GlcNAc(b1-3)Gal(b1-4)GlcNAc(b1-3)Gal(b1-4)GlcNAc(b1-2)Man(a1-6)]Man(b1-4)GlcNAc(b1-4)GlcNAc
# Method in brief: as §1
# [4] = target: Gal(b1-4)GlcNAc(b1-3)Gal(b1-4)GlcNAc(b1-3)Gal(b1-4)GlcNAc(b1-3)Gal(b1-4)GlcNAc(b1-3)Gal(b1-4)GlcNAc(b1-2)Man(a1-3)[Gal(b1-4)GlcNAc(b1-3)Gal(b1-4)GlcNAc(b1-3)Gal(b1-4)GlcNAc(b1-3)Gal(b1-4)GlcNAc(b1-3)Gal(b1-4)GlcNAc(b1-2)Man(a1-6)]Man(b1-4)GlcNAc(b1-4)[Fuc(a1-6)]GlcNAc
# Method in brief: as §1
# [5] = target: Gal(b1-4)GlcNAc(b1-3)Gal(b1-4)GlcNAc(b1-3)Gal(b1-4)GlcNAc(b1-3)Gal(b1-4)GlcNAc(b1-3)Gal(b1-4)GlcNAc(b1-2)[Gal(b1-4)GlcNAc(b1-3)Gal(b1-4)GlcNAc(b1-3)Gal(b1-4)GlcNAc(b1-3)Gal(b1-4)GlcNAc(b1-3)Gal(b1-4)GlcNAc(b1-6)]Man(a1-6)[Gal(b1-4)GlcNAc(b1-3)Gal(b1-4)GlcNAc(b1-3)Gal(b1-4)GlcNAc(b1-3)Gal(b1-4)GlcNAc(b1-3)Gal(b1-4)GlcNAc(b1-2)Man(a1-3)]Man(b1-4)GlcNAc(b1-4)[Fuc(a1-6)]GlcNAc
# Method in brief: as §1
# [6] = target: Gal(b1-4)GlcNAc(b1-3)Gal(b1-4)GlcNAc(b1-3)Gal(b1-4)GlcNAc(b1-3)Gal(b1-4)GlcNAc(b1-3)Gal(b1-4)GlcNAc(b1-3)Gal(b1-4)GlcNAc(b1-2)Man(a1-3)[Gal(b1-4)GlcNAc(b1-3)Gal(b1-4)GlcNAc(b1-3)Gal(b1-4)GlcNAc(b1-3)Gal(b1-4)GlcNAc(b1-3)Gal(b1-4)GlcNAc(b1-3)Gal(b1-4)GlcNAc(b1-2)Man(a1-6)]Man(b1-4)GlcNAc(b1-4)GlcNAc
# Method in brief: as §1
# [7] = target: Gal(b1-4)GlcNAc(b1-3)Gal(b1-4)GlcNAc(b1-3)GalNAc
# Method in brief: as §1
# [8] = target: Gal(b1-4)GlcNAc(b1-3)Gal(b1-4)GlcNAc(b1-3)[Gal(b1-4)GlcNAc(b1-3)Gal(b1-4)GlcNAc(b1-6)]GalNAc
# Method in brief: as §1
# [9] = target: Gal(b1-4)GlcNAc(b1-3)Gal(b1-4)GlcNAc(b1-6)[Gal(b1-3)]GalNAc
# Method in brief: as §1
# [10] = target: Gal(b1-4)GlcNAc(b1-3)Gal(b1-4)[Fuc(a1-3)]GlcNAc(b1-3)Gal(b1-4)[Fuc(a1-3)]GlcNAc
# Method in brief: as §1
# [11] = target: Gal(b1-4)GlcNAc(b1-3)GalNAc
# Method in brief: as §1
# [12] = target: Gal(b1-4)GlcNAc(b1-3)[Fuc(a1-3)GlcNAc(b1-6)]Gal(b1-4)Glc
# Method in brief: as §1
# [13] = target: Gal(b1-4)GlcNAc(b1-3)[Gal(b1-4)GlcNAc(b1-6)]Gal(b1-4)GlcNAc
# Method in brief: as §1
# [14] = target: Gal(b1-4)GlcNAc(b1-3)[GlcNAc(b1-6)]Gal(b1-4)GlcNAc
# Method in brief: as §1
# [15] = target: Gal(b1-4)GlcNAc(b1-6)Gal(b1-4)GlcNAc
# Method in brief: as §1
# [16] = target: Gal(b1-4)GlcNAc(b1-6)GalNAc
# Method in brief: as §1
# [17] = target: Gal(b1-4)GlcNAc(b1-6)[Gal(b1-3)]GalNAc
# Method in brief: as §1
# [18] = target: Gal(b1-4)GlcNAc(b1-6)[Gal(b1-4)GlcNAc(b1-3)]GalNAc
# Method in brief: as §1
# Gal(b1-4)GlcNAc6P = target: Gal(b1-4)GlcNAc6P
# Method in brief: as §1
# Gal(b1-6)Gal = target: Gal(b1-6)Gal
# Method in brief: as §1
# Gal3S(b1-3)GalNAc = target: Gal3S(b1-3)GalNAc
# Method in brief: as §1
# Gal3S(b1-3)GlcNAc = target: Gal3S(b1-3)GlcNAc
# Method in brief: as §1
# [19] = target: Gal3S(b1-3)[Fuc(a1-4)]GlcNAc
# Method in brief: as §1
# Gal3S(b1-4)Glc = target: Gal3S(b1-4)Glc
# Method in brief: as §1
# Gal3S(b1-4)Glc6S = target: Gal3S(b1-4)Glc6S
# Method in brief: as §1
# Gal3S(b1-4)GlcNAc = target: Gal3S(b1-4)GlcNAc
# Method in brief: as §1
# [20] = target: Gal3S(b1-4)[Fuc(a1-3)]Glc6S
# Method in brief: as §1
# [21] = target: Gal3S(b1-4)[Fuc(a1-3)]GlcNAc
# Method in brief: as §1
# [22] = target: Gal3S(b1-4)[Fuc(a1-3)]GlcNAc6S
# Method in brief: as §1
# Gal3S4S(b1-4)GlcNAc = target: Gal3S4S(b1-4)GlcNAc
# Method in brief: as §1
# Gal3S6S(b1-4)GlcNAc = target: Gal3S6S(b1-4)GlcNAc
# Method in brief: as §1
# Gal3S6S(b1-4)GlcNAc6S = target: Gal3S6S(b1-4)GlcNAc6S
# Method in brief: as §1
# Gal4S(b1-4)GlcNAc = target: Gal4S(b1-4)GlcNAc
# Method in brief: as §1
# Gal4S6S(b1-4)GlcNAc = target: Gal4S6S(b1-4)GlcNAc
# Method in brief: as §1
# Gal6P(b1-4)GlcNAc = target: Gal6P(b1-4)GlcNAc
# Method in brief: as §1
# Gal6S(b1-3)GlcNAc = target: Gal6S(b1-3)GlcNAc
# Method in brief: as §1
# Gal6S(b1-3)GlcNAc6S = target: Gal6S(b1-3)GlcNAc6S
# Method in brief: as §1
# Gal6S(b1-4)Glc = target: Gal6S(b1-4)Glc
# Method in brief: as §1
binder,measurement,setting,value
B1,glycan array binding signal (z-score),[1],0.562
same,glycan array binding signal (z-score),[2],3.95
same,glycan array binding signal (z-score),[3],0.069
same,glycan array binding signal (z-score),[4],-0.02
same,glycan array binding signal (z-score),[5],20.8
same,glycan array binding signal (z-score),[6],0.37
same,glycan array binding signal (z-score),[7],0.056
same,glycan array binding signal (z-score),[8],-0.271
same,glycan array binding signal (z-score),[9],-0.048
same,glycan array binding signal (z-score),[10],-0.12
same,glycan array binding signal (z-score),[11],-0.253
same,glycan array binding signal (z-score),[12],0.349
same,glycan array binding signal (z-score),[13],-0.235
same,glycan array binding signal (z-score),[14],-0.248
same,glycan array binding signal (z-score),[15],-0.355
same,glycan array binding signal (z-score),[16],0.084
same,glycan array binding signal (z-score),[17],0.054
same,glycan array binding signal (z-score),[18],-0.055
same,glycan array binding signal (z-score),Gal(b1-4)GlcNAc6P,0.06
same,glycan array binding signal (z-score),Gal(b1-6)Gal,-0.002
same,glycan array binding signal (z-score),Gal3S(b1-3)GalNAc,-0.308
same,glycan array binding signal (z-score),Gal3S(b1-3)GlcNAc,-0.193
same,glycan array binding signal (z-score),[19],-0.165
same,glycan array binding signal (z-score),Gal3S(b1-4)Glc,-0.018
same,glycan array binding signal (z-score),Gal3S(b1-4)Glc6S,-0.009
same,glycan array binding signal (z-score),Gal3S(b1-4)GlcNAc,-0.142
same,glycan array binding signal (z-score),[20],-0.11
same,glycan array binding signal (z-score),[21],0.269
same,glycan array binding signal (z-score),[22],0.072
same,glycan array binding signal (z-score),Gal3S4S(b1-4)GlcNAc,-0.214
same,glycan array binding signal (z-score),Gal3S6S(b1-4)GlcNAc,-0.057
same,glycan array binding signal (z-score),Gal3S6S(b1-4)GlcNAc6S,-0.306
same,glycan array binding signal (z-score),Gal4S(b1-4)GlcNAc,-0.429
same,glycan array binding signal (z-score),Gal4S6S(b1-4)GlcNAc,-0.349
same,glycan array binding signal (z-score),Gal6P(b1-4)GlcNAc,-0.227
same,glycan array binding signal (z-score),Gal6S(b1-3)GlcNAc,0.274
same,glycan array binding signal (z-score),Gal6S(b1-3)GlcNAc6S,-0.126
same,glycan array binding signal (z-score),Gal6S(b1-4)Glc,-0.09
